The source gives no read counts; variants with many changes may rest on few reads.

The chains are these.
B1: OR4K15 (parent)
chain: GUUAACGGUCAUAGGCCAUGGAAACUAGGAGCACCAUUUCGCUGCCAGUGAAGAAAUGAACAAAGAAAAUCUGGGCCAGGCAGGCAUCAAAAGAAAUAGUCUUGCGCUCAACCAGAAAGUCUGUAAUCAUUUUAAGGGUA

In this data set the parent is B1. Kind of data set: self-cleavage, relative activity (ratio to wild type); higher = more cleavage; in vitro, sequencing; the parent is a self-cleaving ribozyme.
With A90G A116G A118G, the self-cleavage was found to be 0.16.
Take A98G C107U A117G U130C: the self-cleavage amounted to 0.
On to A95G U139C A140U, for which the self-cleavage was 2.28.
Regarding A95G U131C G137A, the self-cleavage came out at 1.53.
As for A89U U97A U108C, the self-cleavage was found to be 0.01.
Consider A92G A114U U130C, for which the self-cleavage was determined as 0.02.
The value for A95G A129G U131C A134G was 0.89; that for A89G U131C U139C was 1.47; that for A111G A118C U132C was 0.
Turning to A91G U103C G137A, the self-cleavage is 0.44.
In the case of G99A A111G A116G U131C, the self-cleavage was found to be 0.
As for A117G U120C U124A U132C, the self-cleavage was 0.66.
Consider A94G A98G U100C, for which the self-cleavage turned out to be 1.59.
The value for U108C A111G A114G was 0; that for A98U U108G A114G was 0.02.
In the case of A89G U102C A110G, the self-cleavage is 0.17.
For A90G U103C A129U, the self-cleavage was found to be 0.4.
Turning to U102A U108A A129U, the self-cleavage was 0.
For the variant A96U U100C A118G, the self-cleavage came out at 2.75.
The value for U108C A129G U130C A135G was 0.01.
Turning to U103C U122C U133C, the self-cleavage is 0.69.
The value for A91G A92G U130C was 0.54; that for C101A C109U U130C was 0.04.
Turning to A92U A95G U120C, the self-cleavage turned out to be 1.49.
U122G C128U A129G: the self-cleavage was 2.45.
Consider A96G U102C A116G U122C G137A, for which the self-cleavage was 1.46.
For U100C U108C A125G, the self-cleavage is 0.
The value for A95G A116U U127C was 0.02; that for U108C A110G U130C U131C was 0.
Turning to A114G U132C G137A, the self-cleavage is 0.88.
As to A95G A118G A126C, the self-cleavage amounted to 0.61.
Take A91U A92G U103C G119A: the self-cleavage was found to be 0.39.
Turning to A111U A116U U130C A135C, the self-cleavage worked out at 0.
As to A89G U108C U130C, the self-cleavage was 0.01.
The value for A89G A92G A94U A110G A114G U120C U132C was 0.01; that for A90G A118U A126G U132C was 0.11.
Turning to U100C A116G A134G A135G, the self-cleavage amounted to 0.51.
For the variant A94G U103C U108C U120C, the self-cleavage was 0.
Turning to A110U A116G A129C U131C, the self-cleavage worked out at 0.97.
On to U102C A135U G137U, for which the self-cleavage was 2.07.
U97G A114G A116C: the self-cleavage stood at 0.01.
The value for A118G A129C U130C was 0.21.
Consider A90G A94G U108G, for which the self-cleavage is 0.02.
For A117G A126G U130C, the self-cleavage came out at 1.11.
As to U103C A111G U131C, the self-cleavage came to 0.02.
Regarding A91U U102C G106C, the self-cleavage turned out to be 0.01.
With U102C A125G U131C, the self-cleavage worked out at 0.73.
Consider A91G C109U A135G, for which the self-cleavage was 0.24.
As to A95G U122C U132C, the self-cleavage was 2.56.
As to A98U A114G A118G U132C, the self-cleavage amounted to 0.4.
The value for A89U A90G A96G G106A G137U was 0.02; that for A92U U102C U108C was 0.
As to A91G A94G U108A, the self-cleavage turned out to be 0.03.
Regarding U108C A117G U139C, the self-cleavage was 0.01.
U100C U108C U122A: the self-cleavage turned out to be 0.01.
As to A91G A98G U132C, the self-cleavage was found to be 0.18.
As for A111U A114G U122C, the self-cleavage was found to be 0.02.
For A111C A118G U122C the value was 0.01; for A91G U108C G138C, 0; for A89G A91G U103C U122C, 0.1.
A90G A94C U108C: the self-cleavage was 0.01.
Regarding A89G A94G A118U, the self-cleavage was determined as 0.89.
For A92G A94G A96G the value was 0.81; for U100C U103C A126G, 2.17.
For U102A A110U A114G the value was 0.03; for A94G U100G A126G, 0.92.
As to A118G U120C U124A A126G A135G, the self-cleavage came to 0.09.
As to A89G A94G A134U, the self-cleavage was found to be 1.38.
For the variant U100C U130C U131C, the self-cleavage amounted to 2.28.
On to A111G A114G A134G, for which the self-cleavage stood at 0.01.
As for A98U C112U A135G, the self-cleavage came to 0.02.
As to U108G A110U A126G, the self-cleavage was found to be 0.
For A95G U97G A116G A125G the value was 0.32.
With U108C A116G U120C, the self-cleavage turned out to be 0.
For the variant A91G U127A U139A, the self-cleavage amounted to 1.9.
For U108A A111G A117G, the self-cleavage came to 0.
A91C A110G A116G: the self-cleavage was found to be 0.04.
For A96U U108C A125G the value was 0; for A111G A116G A117G, 0; for A111G A114U A134G, 0.
The value for A110G A129G U131C A134G was 0.05; that for A92G A116G U132C was 0.31.
The value for A91U A92G U97C A111U U120C was 0; that for U102C A118G U120C A129G was 0.29; that for A98U A111G A114U was 0.
Consider A89U U97A A98G U132C, for which the self-cleavage is 2.94.
The value for A98U A110C A126G U131C was 0.16; that for U122A U131C G136U G137C was 0; that for A95G A116U U133C was 1.09.
As to A114G A117G A118G U120C U127C, the self-cleavage was found to be 0.02.
Regarding A91G A94U U132C, the self-cleavage worked out at 0.54.
Consider U100C U108C U127C, for which the self-cleavage is 0.
Take A94G A110G U132C: the self-cleavage stood at 0.12.
As for A94U A117G A135G, the self-cleavage worked out at 1.
For A118G U131C A135G the value was 0.19; for U100C A114G A125U, 1.28.
With U103A A117G U122C, the self-cleavage worked out at 0.76.
The value for A92G C105U U122A U131C was 0.02; that for A90G A95G U122C was 2; that for A95G U120C U131C was 0.45.
Take A89U A90G A140G: the self-cleavage turned out to be 1.11.
For U124C A126G U127C the value was 0.23; for U100C U102A U133C, 1.78.
For A96G A114U U131C A135G the value was 0.08; for A92U A94G A117G, 1.24; for U100C U131C U133A, 2.07.
Regarding A92U A117G A126G A134G U139C, the self-cleavage worked out at 1.69.
For U100A A110G A111G A117G, the self-cleavage stood at 0.01.
For U108C A116G A135G, the self-cleavage worked out at 0.
Regarding A89G A90G U127C, the self-cleavage came out at 0.37.
Turning to A117U U124C U130C, the self-cleavage was 0.36.
As to A96G U103A U122C, the self-cleavage was found to be 0.37.
For C128U U130C U131G, the self-cleavage was 1.74.
For A91U A118G A129G U133C, the self-cleavage was 0.29.
Consider U120C U130C A140G, for which the self-cleavage is 1.12.
As to U103C A129G A134G, the self-cleavage came out at 0.55.
On to A96G U100C A116G A129G, for which the self-cleavage is 0.5.
Turning to A95G A111C U122A A129G, the self-cleavage came out at 0.01.
For A96U U103C U122C the value was 0.81; for A96G U100A A116G, 0.11.

The record behind these values is the RNAGym collection of RNA variant scans (doi:10.7554/elife.90254).
